Results from the supplement of paper PMC11417369.
Some of the results follow.

tested on: PfAP2-HC AP2 domain (GST-tagged); assay: gcPBM binding intensity (ln(normalized median fluorescence intensity)); higher = stronger DNA binding
Outline: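 Binding intensity is defined as the maximum Masliner-normalised natural-log median intensity across replicate spots for either probe orientation. It was measured on an Agilent 4 × 180k array of primer-extended double-stranded 36-bp intergenic genomic probes and negative controls, to which GST-tagged P. falciparum DNA-binding domains made in E. coli were applied for 1 h in 1× PBS with 1% milk, 0.2 mg/ml BSA, 0.5% salmon testes DNA and 0.03% Triton X-100. Detection was by Alexa488 anti-GST antibody and scanning at 488 nm.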

Sequence | gcPBM binding intensity (ln)
TGGTGATATACGAAATGTACGCAAATCACAAAATAA [XGTACX_site8836] | 9.61
TCTTTAACAAGTTAAACACACATACCTATATACATA [CACACA_site7237] | 9.75
AAATAAAAATTAAAAAAATAGAAACGAATTGAATGC [TGCATGCA_negctrl_site365] | 9.98
CGCGTATAACGAAATTGTACAAAAAAAATTAAACAT [XGTACX_site6813] | 9.66
AATTAAACTTTGTTTTTGTTTTTTTTTTTTATATTT [CACACA_negctrl_site1316] | 9.47
ATATATATAAATATATGTACATAAATATATTTGTAA [XGTACX_site6715] | 9.79
TAATATATATAACATATACACACGTTCATATATATA [CACACA_site462] | 9.73
TATTTGCAATATTATACACACATTAGATATTGCAAA [CACACA_site7565] | 9.7
AACAAATTAATTCTAGTGCAGGACGTATTTGTGTAC [GTGCAC_site9907] | 9.79
AAAAAAAAAAAAAAATGTACATATATAATATTTATA [XGTACX_site5117] | 9.5
TACAAAATGTTATATCAATATAGATAAAAAAATGAA [XGTACX_negctrl_site285] | 9.69
AATTTTGAGATGTGGTGTACACAAAATTAGTTAGAC [XGTACX_site7033] | 9.87
TCAACGATCACTCGGTGTACTATAAATGAGAGAATT [XGTACX_site1820] | 9.42
ATTAAATTAAAATAATGTACTTAATACTTTTGCTTA [XGTACX_site8404] | 9.44
AACAATTTTTAAAGGTGTACAATATGTATATAAGAA [XGTACX_site254] | 9.88
ATATATATATATAAAGGTACACATTTATTAAATATA [XGTACX_site7102] | 9.7
TACAATATAATTTAATGTACATGTGAATATATATAT [XGTACX_site4675] | 9.66
TTAAAAAGAGGTGACACACACATATAAATCTAAATC [CACACA_site3738] | 10.5
TAATATACTATAAATACACACAAGTGTACATACTTC [CACACA_site983] | 9.88
TATTAAAAGGTGAGTACACACATATCTGAGTATATA [CACACA_site5192] | 9.85
TTGTGCTAAACAAAAAAAAATATATATAAAAAAATA [XGTACX_negctrl_site388] | 9.42
ATATGTATATAATAAGAACACACATATATTTAATTT [CACACA_site8961] | 9.96

Sequence | gcPBM binding intensity (ln)
ATAAAAATATATGAAACACACAGTTTCTATAAGAAA [CACACA_site4156] | 9.85
GTTATTAAATAATTCACACACATATATAAATAAATA [CACACA_site7129] | 9.93
ATATCTCAACATATCACACATATATATATATAATAT [CACACA_site5018] | 9.9
AATAAATATAAATAAATAAATATATATATATATTTG [CACACA_negctrl_site1486] | 9.56
CATCCACATAGATGTACACACATATATATATATATA [CACACA_site5616] | 10.1
ATATGTATATTTTTGATGTGCTTTTATTTGGTTATT [CACACA_negctrl_site626] | 9.91
CTTCATAAAAATTGCACACATATAATAATGTACATA [CACACA_site2212] | 9.71
AAAAAAAATACATACACACACACACGCACATATATA [CACACA_site7645] | 11.7
ATTTTTTTATAATCAACCCATTTCCTACATTTTTAT [CACACA_negctrl_site1237] | 9.85
AAAATTAATTTATTTACACACAATATTAAAATATTT [CACACA_site7512] | 9.59
TTTTATACATATTTTACACACTAAAATATACAGATA [CACACA_site4333] | 9.56
TTACATATTCATAAAAGTACATAATTATAAAAGGTA [XGTACX_site906] | 9.66
GTATATATGTTTTATACACACATTAAAGGAAATATA [CACACA_site984] | 9.83
TATAATATATAAAAATGTACACATAAATATAAGTAG [XGTACX_site665] | 9.93
ACATGCAAGAAGAAATGTACTTAACATCTATATAGA [XGTACX_site7338] | 9.52
ACTAAATAAATAAATATAATATATAAATATGTATGT [TGCATGCA_negctrl_site583] | 9.76
GCCATAAAGATATATACACACATAAAAAAAAGTTAT [CACACA_site6674] | 9.9
AAAAAAAAAATTAAATGTACATATATAATATATATA [XGTACX_site7245] | 9.63
TTAACAAAGAAACACACACACACACCCAAAAAAAAA [CACACA_site516] | 10.6
ATTATTATAGATAAAACACACAATTTTGTTTTCACA [CACACA_site7792] | 9.64
AAACAATTATTATATTGTACATATATTACATTATTA [XGTACX_site1089] | 9.54
TTATATTTTATTATGTGTACGTATATAATATAATAT [XGTACX_site6230] | 9.6

Sequence | gcPBM binding intensity (ln)
AATCAAAAAGGAACCATAATATTACAACTATATATA [CACACA_negctrl_site381] | 9.61
TAAAACTTAATGTTTTGTACATATTCTTCTTTATTT [XGTACX_site4271] | 9.63
GCTTAGTTATATAACTGTACTATTTTTATTTATATG [XGTACX_site884] | 9.89
ATAAAGTAAGAAGAAATAATGATTTTCATGGAAAAC [XGTACX_negctrl_site322] | 9.71
AATAAGATAAGGAAAAGTACTTATAATTAAACTAAT [XGTACX_site1850] | 9.74
CTCATAGTTGGGTGCACACAAAAAATTAAAAAAATA [CACACA_site3032] | 9.95
AAATACATACATTAATGTACAAATAGAAACACTCTT [XGTACX_site1512] | 9.95
AAATATAAGTAAATAAATAAATATATAAATATATAA [TGCATGCA_negctrl_site441] | 9.71
TTTTTATTCGTTAAATGTACAAAAAAAATGTTATAT [XGTACX_site2804] | 9.32
ATACACTAGAAAATTTTATAGTATTATTAATGTTAA [GTGCAC_negctrl_site101] | 9.5
GATAAACCATATATAACACACATATGAATATTGCAA [CACACA_site6735] | 9.85
ATATCATATATAAGTCGTACGATGAATAGAATTTTT [XGTACX_site7586] | 9.88
CACCCATACAGACATACACACACATATATATTAATA [CACACA_site8077] | 10.2
CTTATACAAAAAAAAAGTACATAACATAATAAGAAT [XGTACX_site6782] | 9.78
ACAGATGATCAAAATTGTACAGAGTTATATTATATT [XGTACX_site4642] | 9.65
TTATTTAAAAATAGCACACATTATATATATATATAT [CACACA_site5556] | 9.74
CCATAATTATATGCCAGTACATATTTGTAACAAAAA [XGTACX_site851] | 9.58
TTTATTTTTCATTGGGGTACACAAGTTTATTTTATT [XGTACX_site4263] | 9.69
TAAGTAATAGTTTGTGCACACTCAAGTATATCATAT [CACACA_site4035] | 9.98
TATTATTCCATGTGAAGTACAGAAATATAAATAAAT [XGTACX_site5106] | 9.48
CTTTTAAAAAAATTCATGCACACGAAATAAAAAGCA [CACACA_site929] | 9.73
CAAAATATTTTTATAACACACATATATAGAATGTGC [CACACA_site1145] | 9.61

Sequence | gcPBM binding intensity (ln)
TATATATATATAACAACACACACAGATCATAAAACT [CACACA_site8670] | 10.6
TATTTTTTTTCGTAATGTACATAAAAAATGCAAAAA [XGTACX_site8491] | 9.43
ATTATATAATTTAATCGTACACAAATATTTGTTAGT [XGTACX_site5913] | 9.62
TTTTACTATACTTATGCACACAAGATAAATACATAT [CACACA_site5619] | 9.83
ATACCTCAAATTGATACACACAAAAAAAGTAAATTA [CACACA_site3134] | 9.8
CTATTTTAATATTTTACACACCATGTAAAATATATA [CACACA_site5732] | 9.65
TATCATCTTAATATCGTGCACATTTATAGAACGAAA [GTGCAC_site9992] | 9.41
ATATATATATATATATGTACACAGGACAATAATCCT [XGTACX_site6383] | 9.94
TATTAAAAGGTGAGTACACACATATATGTGTATATA [CACACA_site7070] | 10
TTTTTTTTTATAAATACACACGTACGGGTGCATAAC [CACACA_site8444] | 9.65
ATCATGAAATATATTTGTACACATAATAATATAATA [XGTACX_site8798] | 9.71
ATTTGGCAGAAACACACACACACACCCACCCACATA [CACACA_site589] | 10.5
GGAATAGTCGGGTGCATACACACCTTAAATATAATA [CACACA_site1081] | 9.59
AATCATATTAGTATGGTGCAATATATATATAAATAT [GTGCAC_site9800] | 9.69
AAAGAAAATTCAATAGTGCATAAAAATATATATGTT [GTGCAC_site9680] | 9.69
ACTAATTACTATAAAACACACATATATTTATTTATA [CACACA_site7263] | 9.82
CACATGTATTTATAGGTGCGTAAAAACACTTTATAT [GTGCAC_site9501] | 9.58
TTATAGAAACATTGGTGTACGATATTTACTTCTTTC [XGTACX_site7314] | 9.56
TTTTACTATACTTATGCACACAAGATATATACATAT [CACACA_site2968] | 10
TAAAAAAATTCATGCACACGAAATAAAAAGCACCTT [CACACA_site4667] | 9.94
AAACATAAATTTTATTGTACATTATATAGAATTTTC [XGTACX_site576] | 9.52
AATACATACATACATACACACATATATATATATTAT [CACACA_site3575] | 10.8
